Over roughly 110,000 compounds, “z-score” has its median near -0.1; the highest 2% begin near 2. The list shows a part of the results.
target: Metabotropic glutamate receptor 8 (Rattus norvegicus) (UniProt P70579); assay: mGluR8 Gi/Go-coupled signaling modulation – cell-based, rat, thallium flux, HTS, primary screen (AID 488969); settings: HEK293 rat mGluR8, GIRK (G protein-gated inwardly rectifying potassium channel) thallium flux, FluoZin2; at 10 µM; stronger effect = higher value; submaximal glutamate (EC20) added with thallium
UniProt P70579, sequence (P70579 whole entry, looked up): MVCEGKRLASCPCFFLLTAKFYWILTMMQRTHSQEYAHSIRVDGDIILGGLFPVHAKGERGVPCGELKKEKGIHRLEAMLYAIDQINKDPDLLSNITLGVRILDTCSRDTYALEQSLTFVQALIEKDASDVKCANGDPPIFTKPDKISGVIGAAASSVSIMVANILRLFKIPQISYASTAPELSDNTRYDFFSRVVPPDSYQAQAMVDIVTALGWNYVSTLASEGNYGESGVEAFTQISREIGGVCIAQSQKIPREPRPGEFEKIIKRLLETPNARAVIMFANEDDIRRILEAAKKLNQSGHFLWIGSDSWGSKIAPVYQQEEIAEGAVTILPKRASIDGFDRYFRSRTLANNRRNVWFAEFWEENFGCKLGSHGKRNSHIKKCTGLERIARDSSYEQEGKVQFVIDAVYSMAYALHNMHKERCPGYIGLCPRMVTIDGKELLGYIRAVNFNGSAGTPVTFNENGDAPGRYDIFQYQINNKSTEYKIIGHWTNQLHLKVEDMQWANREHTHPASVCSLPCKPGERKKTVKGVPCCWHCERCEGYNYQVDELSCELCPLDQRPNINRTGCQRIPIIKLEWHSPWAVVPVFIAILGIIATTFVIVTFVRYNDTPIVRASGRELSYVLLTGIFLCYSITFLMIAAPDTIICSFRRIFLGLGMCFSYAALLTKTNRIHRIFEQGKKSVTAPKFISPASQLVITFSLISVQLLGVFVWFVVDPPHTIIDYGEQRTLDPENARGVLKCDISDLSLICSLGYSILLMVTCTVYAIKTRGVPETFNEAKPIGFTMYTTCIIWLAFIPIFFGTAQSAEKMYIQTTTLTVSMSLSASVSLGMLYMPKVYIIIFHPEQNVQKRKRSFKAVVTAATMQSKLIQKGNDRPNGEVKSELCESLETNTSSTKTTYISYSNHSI

SMILES | z-score
COCn1c(COc2ccccc2)nc2ccccc21 | -0.0471
COc1ccc(OCCOC(=O)Nc2ccccc2)cc1 | -1.63
Cc1ccc(NC(=S)NNC(=O)c2ccco2)cc1 | 0.217
CC(=O)NC(C)C(=O)OCC(=O)c1ccc(Cl)s1 (stereo not given) | 0.437
Cn1c(=O)c2c(nc(SCC(=O)c3cccs3)n2Cc2ccc(F)cc2)n(C)c1=O | -0.767
Cc1nnc(N(C)C(=O)c2ccccn2)s1 | -0.146
O=C(CN1CCN(Cc2ccc(F)cc2)C1=O)NCc1cccs1 | 0.569
O=C(Nc1c(C(=O)N2CCCCC2)cnn1-c1ccccc1)c1ccccc1 | -0.132
Cc1c(C(=O)OCC(=O)N2CC(=O)Nc3ccccc32)oc2ccccc12 | 0.186
Cn1c(=O)n(C)c(=O)n(CC(=O)N2CCCCC2)c1=O | 0.305
C/C(=N\NC(=O)CNC(=O)C(c1ccccc1)c1ccccc1)c1ccc(C)cc1 | -0.536
CCOC(=O)N1CCN(CC(=O)N2c3ccccc3CC2C)CC1 (stereo not given) | -0.746
CCOC(=O)N/N=C1\CC(C)CC(C)(C)C1 (stereo not given) | -0.258
CCOC(=O)C1=C(C)N=C2SC(C)C(=O)N2C1c1ccc(OC(C)=O)c(OCC)c1 (stereo not given) | -0.314
CCOC(=O)c1c(C)[nH]c(N=Nc2ccc(C)cc2)c1C | 0.218
CCn1cc(CNC(=O)/C=C/c2ccc([N+](=O)[O-])cc2)cn1 | -0.0606
CCOC(=O)Cn1nc(Cc2ccccc2)c2ccccc2c1=O | -0.513
Cc1ccc2c(Cl)c(C(=O)N/N=C/c3cccn3C)sc2c1 | 0.122
CC1(C)CC(=O)c2c(O)cc(O)cc2O1 | -0.161
O=C1CC(=C2c3ccccc3-c3ccccc32)C(=O)N1CCCCN1CCN(c2ccccc2)CC1 | -0.0433
COc1ccc(CNc2nc3nc(C)c(Cl)c(C)n3n2)cc1OC | -0.508
Cc1ccc(SC(c2ccccc2)C(Cn2cncn2)C(=O)c2ccccc2)cc1 (stereo not given) | -0.171
COc1cccc(/C=N/n2c(CO)nc3ccccc32)c1OC | -0.36
O=C1NCCCC1C(=O)N/N=C/c1cccc(O)c1 (stereo not given) | 0.229
C#CCOC(=O)c1ccc(-n2cncn2)nc1 | -0.0454
Cc1nn2c(COc3ccc(NC(=O)c4ccccc4)cc3)nnc2c2ccccc12 | -0.386
CC1(C)CC(=O)/C(=C(\O)Cc2ccccc2)C(=NCCCCCC(=O)O)C1 | 0.032
Cn1c(=O)c2c(nc(N3CCOCC3)n2CCCNC2=NCCCCC2)n(C)c1=O | 0.0472

SMILES | z-score
Cc1ccc(-n2nnnc2C(Cl)c2nnnn2-c2ccc(C)cc2)cc1 | -0.616
CCc1ccccc1NC(=O)CCC(=O)OCC(=O)c1ccc(-c2ccccc2)cc1 | -0.163
CCOc1c2ccc(C(=O)NCc3ccccc3OC)cc2nn1CC | 0.131
CC(=O)/C=C/c1ccc2ccccc2n1 | 0.038
CCOC(=O)Cn1nnc(-c2ccc(SC)cc2)n1 | -0.332
CC(C)CCOc1ccc(-c2c(=O)n(OCc3ccc([N+](=O)[O-])cc3)c3ccccc3[n+]2[O-])cc1 | -0.238
COc1cc(C(=O)NC(=S)Nc2ccc([N+](=O)[O-])cc2)cc(OC)c1OC | 1.31
O=S1(=O)CCC(NC(=S)Nc2ccc(Cl)cc2)C1 (stereo not given) | 0.0328
O=C(COC(=O)C1=COCCO1)Nc1cccc(Oc2ccccc2)c1 | -0.192
Cc1ccc2c(CC(=O)OC(C)C(=O)Nc3ncc(Cl)cc3Cl)coc2c1 (stereo not given) | -0.356
O=C(CCc1ccccc1)NCc1cccnc1 | -0.814
CCCS(=O)(=O)N1CCC(C(=O)N2CCOCC2)CC1 | -0.364
O=S(=O)(/N=S1/CC=CCN1S(=O)(=O)c1ccccc1)c1ccccc1 (stereo not given) | -0.0838
Cc1ccc(N(C)C(=O)N2CCN(S(=O)(=O)c3c(C)cc(C)cc3C)CC2)cc1 | -0.4
COc1ccc(N)c2c1OCCC2=O | 0.265
Cc1ccc(N(Cc2ccco2)C(=O)c2cccc(S(=O)(=O)N(C)C)c2)cc1 | -0.0289
Cn1c(CCCCCN)nc2ccccc21 | -0.166
C=CCNC(=O)c1ccccc1NC(=O)c1ccc(Cl)c(S(=O)(=O)Nc2cccc(C)c2C)c1 | -0.277
COc1ccc(NC(=O)COC(=O)c2c3c(nc4ccccc24)CCCC3)cc1 | -0.731
COc1cc(NC(=O)C/C(C)=N/NC(=O)Cc2ccccc2)c(OC)cc1Cl | 0.0355
Cc1ccc(NC(=O)C(=O)NCc2ccc(/C=C(/C#N)C(=O)NCc3cccnc3)o2)cc1C | -0.169
COc1ccc(NC(=O)C2CCC(CNc3c(N4CCC(C)CC4)c(=O)c3=O)CC2)cc1OC (stereo not given) | -0.262
CS(=O)(=O)N1CCC(C(=O)Nc2ccc(Oc3ccccc3)cc2)CC1 | -0.148
Cc1ccc2c(c1)c1c(n2CC(O)Cn2nc(C)c(Br)c2C)C(=O)CCC1 (stereo not given) | -0.111
O=C(Nc1ccc(S(=O)(=O)N2CCOCC2)cc1)C1CCCCC1 | 0.469
O=C1/C(=C/c2ccccc2O)SC(=S)N1Cc1cccnc1 | 0.442
O=C(/C=C/c1ccccc1)NC(NC(=S)Nc1cccc(Cl)c1)C(Cl)(Cl)Cl (stereo not given) | 1.36
